In PubChem BioAssay AID651820 (National Center for Advancing Translational Sciences (NCATS), 2012):
Out of some 340,000 compounds screened, about 12,000 (3.5%) were called active. Inconclusive results, whose numbers are uncertain, are shown with a selection of clear calls. Calls come from the whole dose curve; as a rule, active = well fitted inhibition curve with a large enough effect; inconclusive = small, poorly fitted or top-dose-only effect, or another doubt; inactive = no such curve, though single readings can be large or run the other way. Potencies of inconclusive entries are left out as doubtful fits.

Experiment: qHTS Assay for Inhibitors of Hepatitis C Virus (HCV)
Details: Huh7.5.1 HCVcc-Cre (HCVcc is cell-culture hepatitis C virus) infection, luciferase reporter, 44 h; series mostly up to 41.8 µM
How it was run: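 Seed cells (1,000/well) for 4 h; treat with compound and infect with HCVcc-Cre, moi about 0.5. Incubate 44 h, then detect luciferase activity.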
Potency is the fitted concentration of half-maximal effect; tags give direction and shape of the fitted curve.

Structure (SMILES) | Potency
CCCc1[nH]n(-c2nc3ccccc3s2)c(=O)c1C=NCCN1CCOCC1 | inconclusive [inhibitor, single point]
COc1ccc(NC(=O)c2cc(-c3ccccc3)nc3c2c(C)nn3-c2ccccc2)c(OC)c1 | inconclusive [inhibitor, partial curve]
O=C(Nc1ccc2ccccc2c1)N1CCN(c2ncccc2C(F)(F)F)CC1 | inconclusive [inhibitor, single point]
COc1cccc(/C=C2/SC(=S)N(CCCC(=O)Nc3ccc(O)cc3)C2=O)c1 | inconclusive [inhibitor, single point]
CCc1cc(C(=O)N2CCCC(N3CCN(c4cccc(C(F)(F)F)c4)CC3)C2)n(C)n1 (stereo not drawn) | active: 10 µM
Cc1ccc(-c2c(C(=O)N/N=C/c3sccc3C)nnn2-c2nonc2N)cc1 | inconclusive [inhibitor, single point]
CCOc1cc(C)c(S(=O)(=O)NCCCn2ccnc2)cc1C | inconclusive [inhibitor, single point]
CCOC(=O)c1[nH]c2ccc(OCC)cc2c1NC(=O)CN1CCCC(C)C1 (stereo not drawn) | inconclusive [inhibitor, single point]
Cc1ncc([N+](=O)[O-])n1S(=O)(=O)c1cc(Cl)ccc1Cl | inactive
CC1CCc2sc(C(=O)N/N=C/c3ccc(O)cc3)cc2C1 (stereo not drawn) | inconclusive [inhibitor, single point]
CCc1ccc(OCC(=O)NNC(=S)NC(=O)C2CC2)c(Br)c1 | inconclusive [inhibitor, single point]
Cc1nn(-c2ccccc2)c(C)c1NC(=O)COC(=O)c1cc(Br)ccc1O | inactive
Cc1oc2c(c1C(=O)c1ccc(Cl)cc1)C(=O)C(=O)c1ccccc1-2 | active: 10 µM
COc1cc(OC)c(OC)cc1CN1CCN(Cc2ccc(SC)cc2)CC1 | inconclusive [inhibitor, single point]
C=CCc1c(N(CC)CC)nc(C)[nH]c1=O | inconclusive [inhibitor, single point]
O=C(O)c1cccc2cccnc12 | inactive
C#Cc1cccc(C(=O)N2CCCC(CCC(=O)NCc3ccccc3F)C2)c1 (stereo not drawn) | inactive
COC(=O)c1ccc(S(=O)(=O)NCc2ccco2)n1C | inactive
Cc1cc(C)n2c(nc3ccccc32)c1C(=O)NN | inactive
C=CCn1c(COc2ccccc2OC)nc2ccccc21 | inactive
Clc1cccc(-c2cc3nc4c(c(NCc5ccco5)n3n2)CCCC4)c1 | active: 10 µM
CC(=O)c1cc(C#N)c(SCC(=O)Nc2nccs2)nc1C | inconclusive [inhibitor, single point]
S=c1nc[nH]c2c1ncn2C1CCCC1 | inactive
Cc1ccc(S(=O)(=O)N2CCC(C(=O)NCC3CCCCC3)CC2)cc1 | inconclusive [inhibitor, partial curve, poor fit]
Cc1ccc(/C=c2\sc3nc(-c4ccco4)nn3c2=O)o1 | inactive

Structure (SMILES) | Potency
S=C(NCc1ccccc1)NNc1ccccc1 | inactive
COC(=O)c1ccc(COC(=O)c2ccccn2)cc1 | inactive
Cn1nc(-c2ccccc2)c(CSc2cccc(Cl)c2)c1Cl | inconclusive [inhibitor, single point]
COC(=O)c1c(NC(=O)c2ccc(Br)o2)sc(C)c1C | inconclusive [inhibitor, single point]
CN(C)S(=O)(=O)c1ccc(N2CCCC2)c(C(=O)Nc2nc3ccccc3s2)c1 | inconclusive [inhibitor, partial curve]
Cc1ccc2nc(/C(C#N)=C/c3ccc(-c4ccccc4C(=O)O)o3)[nH]c2c1 | inactive
O=C(O)CCCN1C(=O)/C(=C/c2ccncc2)SC1=S | inconclusive [inhibitor, single point]
CN1C(=O)c2ccc(NC(=O)c3ccc(N4CCCCC4)c([N+](=O)[O-])c3)cc2C1=O | inactive
CSC(=Nc1ccccc1)C(C#N)c1nc2ccccc2[nH]1 (stereo not drawn) | inactive
O=C(c1ccoc1)N1CCC2(CC1)Oc1ccc(Cl)cc1C(=O)C21CC(c2ccccc2)=NO1 (stereo not drawn) | active: 11.2 µM
COCCCNC(=O)c1ccc2c(=O)n(C3CCCC3)c(=S)[nH]c2c1 | inactive
C=CCn1cnc2scc(-c3ccc(C)c(C)c3)c2c1=O | inconclusive [inhibitor, single point]
COc1ccc(CN(C)Cc2cc(=O)oc3cc(C)c(C(C)C)cc23)cc1OC | inconclusive [inhibitor, partial curve]
O=[N+]([O-])c1ccc(O)c2cccnc12 | inconclusive [inhibitor, full curve, poor fit]
COc1ccc(CN(C)C(=O)/C=C/c2ccc(S(=O)(=O)N3CCOCC3)cc2)cc1F | inconclusive [inhibitor, single point]
COc1ccc(Nc2nc(-c3cc4cccc(OC)c4oc3=O)cs2)cc1 | inconclusive [inhibitor, single point]
CCc1cc(=O)oc2c(C)c(OC(C)C(=O)NCCCN3CCOCC3)ccc12 (stereo not drawn) | inactive
O=C(CC1Nc2ccccc2NC1=O)Nc1ccccc1 (stereo not drawn) | inconclusive [inhibitor, single point]
CCOC(=O)N1CCC(N(CCCOC)C(=O)Nc2ccc(CC)cc2)CC1 | inconclusive [inhibitor, single point]
OCc1ccnc2c(O)cccc12 | inconclusive [inhibitor, single point]
O=C(CSc1ccccc1C(=O)O)NC12CC3CC(CC(C3)C1)C2 | inactive
Cc1cccc(C)c1NC(=O)CSc1nnc(-c2ccoc2C)n1CCc1ccccc1 | inactive
c1ccc(Nc2nc(N3CCCCC3)nc(N3CCNCC3)n2)cc1 | inconclusive [inhibitor, single point]
Cc1cccc(C(=O)NC(=S)NNC(=O)c2ccc(Cl)cc2)c1 | inconclusive [inhibitor, partial curve]
O=c1c2ccccc2nc(/C=C/c2ccccc2)n1-c1ccc(O)cc1 | inconclusive [inhibitor, single point]

Structure (SMILES) | Potency
COc1ccccc1N1CCN(Cc2ccc(-c3ccccc3[N+](=O)[O-])o2)CC1 | inconclusive [inhibitor, single point]
O=C1NC(=O)C(c2cn(-c3ccccc3)nc2-c2ccc(F)cc2)N1 (stereo not drawn) | inactive
O=C(Nc1ccc2c(c1)OCO2)c1cccc(S(=O)(=O)N2CCCC2)c1 | inconclusive [inhibitor, full curve]
COc1ccc(-n2cc(CN(C)Cc3n[nH]c(=O)[nH]3)c(-c3cccc(F)c3)n2)cc1 | inconclusive [inhibitor, single point]
COc1ccc(S(=O)(=O)N(CC(=O)NC2CC3CCC2C3)c2ccccc2OC)cc1 (stereo not drawn) | inconclusive [inhibitor, single point]
Cc1cc(-c2ccc(C)c(S(=O)(=O)N3CCN(c4ccc([N+](=O)[O-])cc4)CC3)c2)on1 | inconclusive [inhibitor, partial curve]
COc1ccc(Cn2c(=O)[nH]c3cc(C(=O)Nc4ccc(N5CCN(C)CC5)cc4)ccc32)cc1 | inconclusive [inhibitor, partial curve]
COc1ccc(OCC(=O)Nc2cccc(-c3nc4ccccc4[nH]3)c2)cc1 | inconclusive [inhibitor, partial curve]
COc1ccc(CCN(C)C(=O)CN2C(=O)NC3(CCCc4ccccc43)C2=O)cc1OC (stereo not drawn) | inactive
CNC(=O)n1cc(C)c(-c2cccs2)n1 | inconclusive [inhibitor, single point]
COc1cccc(CN(C)CC(=O)Nc2ccccc2C(C)C)c1 | inactive
CCCc1ccc(Oc2c(-c3ccc(O)c(C)c3O)n[nH]c2C)cc1 | inconclusive [inhibitor, single point]
O=C(NCC1CCN(Cc2ccccc2F)CC1)C1CCCN(c2ncnc3c2nc2n3CCCCC2)C1 (stereo not drawn) | inconclusive [inhibitor, single point]
Cc1nc(-c2ccc(-n3nncc3-c3ccco3)cc2)cs1 | inconclusive [inhibitor, partial curve]
O=C(c1ccco1)N1CCC(c2nc3c(nnn3Cc3ccc(F)cc3)c(=O)[nH]2)CC1 | inactive
Cc1cccc(/C=c2\s/c(=C\C(=O)C(C)(C)C)[nH]c2=O)c1 | inconclusive [inhibitor, partial curve]
O=C(NCc1ccc2c(c1)OCO2)c1ccc(CN2CCc3ccccc3C2)cc1 | inconclusive [inhibitor, single point]
CC(C)Oc1ccc(S(=O)(=O)N2CCOCC2)cc1NC(=O)c1nn(C)c(=O)c2ccccc12 | inconclusive [inhibitor, single point]
COc1ccc(S(=O)(=O)N2CCOCC2)cc1NC(=O)COc1ccccc1OC | inconclusive [inhibitor, single point]
COc1cccc(F)c1C(C[N+](=O)[O-])c1c(N)n(C)c(=O)n(C)c1=O (stereo not drawn) | active: 7.94 µM
Cc1[nH]ccc(=O)c1OCc1ccccc1 | inactive
CCN1CC(CN(C)Cc2nc(-c3ccc(Cl)cc3)no2)CC1=O (stereo not drawn) | active: 11.2 µM
COc1ccc(NC(=O)c2cc(-c3ccccn3)nc3c(C)cc(C)cc23)c(C)c1 | inconclusive [inhibitor, partial curve, poor fit]
